From ChEMBL document CHEMBL4888484, “Replenishing the malaria drug discovery pipeline: Screening and hit evaluation of the MMV Hit Generation Library 1 (HGL1) against asexual blood stage Plasmodium falciparum ,using a nano luciferase reporter read-out” (2022)
Out of some 150,000 compounds screened, about 540 (0.36%) showed an effect of 50% or more. The list shows a part of the results.

system: Plasmodium falciparum; assay: Primary screen in NF54 nanoGlo assay, in single point, at 2uM, 72h; a lower Z score goes with more inhibition; type: functional, Erythrocyte; conditions: timepoint 72 hour

| SMILES | % Inhibition [%] | Z score |
| --- | --- | --- |
| CC(C)N1CCN(C(=O)Nc2nnc(C3CC3)s2)CC1 | -11 | 1.44 |
| O=C(Nc1ccn(CCc2ccncc2)n1)C1CC1c1ccccc1 (stereo not drawn) | 0 | 0.05 |
| CCn1nnc2cc(C(=O)N3CCN(S(=O)(=O)c4ccc(C)cc4)CC3)ccc21 | -5 | 0.51 |
| N#CCCN(C(=O)c1cc(S(=O)(=O)N2CCCCC2)ccc1Cl)c1ccccc1 | -4 | 0.62 |
| Cc1cccc([C@H](C)NC(=O)c2oc(C)nc2C)n1 | -14 | 2.59 |
| CCn1c(C2CCC2)nnc1N1C[C@H](C)OC2(CCC2)C1 | 6 | -0.8 |
| CNC(=O)C1CCCC1Nc1nc(C)c2ccccc2n1 (stereo not drawn) | 21 | -2.69 |
| CC1(C)CCc2nnc([C@@H]3Cc4ccccc4O3)n2C1 | -6 | 0.86 |
| O=C(CCc1ccc(Br)cc1)NC1CCCC1C(=O)O (stereo not drawn) | -8 | 1.15 |
| CC(C)C(NC(=O)NCCC1CCCO1)c1ccccn1 (stereo not drawn) | -9 | 1.12 |
| Cc1ccc(NC(=O)Cn2nc3c(N4CCCCC4)nc4ccccc4n3c2=O)cc1 | -1 | 0.09 |
| O=C1CN(S(=O)(=O)CCc2ccccc2)CCN1c1ccccn1 | -4 | 0.57 |
| CCC(=O)Nc1ccc2c(c1)C(N1CCC(C)CC1)=Nc1ccccc1O2 | -2 | 0.38 |
| Cc1ccc(-c2cc(C(F)(F)F)n3nc(COc4ccccc4)c(-c4ccccc4)c3n2)cc1 | -17 | 2.64 |
| COCC(=O)N1CCc2nc(NC(=O)C3CCC3)sc2C1 | -1 | 0.13 |
| CCCCCOCC(=O)N1CC[C@H](CC(N)=O)C1 | -4 | 0.5 |
| CCCN(CC#N)C(=O)c1cc(S(=O)(=O)C(C)C)ccc1F | -11 | 1.2 |
| Cc1ccc2cc(-c3noc(CCC(=O)N4CCC(C)CC4)n3)c(O)nc2c1 | -5 | 0.87 |
| COc1ccc(S(=O)(=O)N2CCOCC2)cc1NC(=O)[C@H]1CCOC1 | -1 | 0.13 |
| O=C(O)C[C@@H]1CCN(C(=O)c2ccc(F)cc2)C[C@@H]1CC1=NCCc2ccccc21 | -3 | 0.45 |
| O=C(Cc1ccc(O)cc1Cl)N1CCOCC12CCC2 | -9 | 1.19 |
| Cc1n[nH]c(C2CN(C(C)C(=O)N3CCc4ccccc43)CCO2)n1 (stereo not drawn) | -3 | 0.44 |
| Cc1nc(-c2cn(C(C)C)c3ncccc23)sc1C(=O)Nc1ccc2c(c1)OCCO2 | 8 | -1.4 |
| COc1ccc(CCn2nnnc2C2(N3CCOCC3)CCCC2)cc1OC | 1 | -0.22 |
